In all, about 290,000 compounds went through this assay and about 2,100 (0.72%) were called active. Inconclusive results, whose numbers are uncertain, are shown with a selection of clear calls. Calls follow the shape of the dose curve; as a rule, active = well fitted inhibition curve with a large enough effect; inconclusive = small, poorly fitted or top-dose-only effect, or effect the other way; inactive = flat fitted curve, though single readings scatter. Potencies of inconclusive entries are doubtful fits and often do not repeat.
target: Fructose-bisphosphate aldolase (Giardia intestinalis (strain ATCC 50803 / WB clone C6)) (UniProt A8B2U2); assay: qHTS Assay for Inhibitors of Fructose-1,6-bisphosphate Aldolase from Giardia Lamblia; details: purified Giardia FBPA; series mostly up to 59.6 µM; also: nearly all actives have a fitted effect of over 55% in size
How it was run: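 Giardia FBPA (40 nM reagent) was preincubated 10 min at RT with compound (up to 57.5 uM final), then substrate plus GAPDH/TPI/NAD/arsenate coupling system with diaphorase/resazurin was added; resorufin fluorescence (525/598 nm) was read after 20 min.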
Potency is read from the fitted curve at half-maximal effect; tags tell the direction and shape of the fitted curve.

Sequence of UniProt A8B2U2 (A8B2U2 whole entry, looked up): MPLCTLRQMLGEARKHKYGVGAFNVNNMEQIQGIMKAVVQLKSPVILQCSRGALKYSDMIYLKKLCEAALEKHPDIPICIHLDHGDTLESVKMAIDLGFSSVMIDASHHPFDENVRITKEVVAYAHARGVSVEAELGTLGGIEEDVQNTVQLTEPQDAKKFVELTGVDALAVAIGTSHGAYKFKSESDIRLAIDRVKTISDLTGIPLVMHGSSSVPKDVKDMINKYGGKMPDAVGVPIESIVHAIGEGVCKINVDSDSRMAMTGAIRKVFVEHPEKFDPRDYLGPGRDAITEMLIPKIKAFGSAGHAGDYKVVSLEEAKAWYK

| Compound | Potency |
| --- | --- |
| COc1cc(N2C(=O)C=CC2=O)c(OC)cc1Cl | inconclusive: 15.8 µM [inhibitor, single point] |
| O=[N+]([O-])c1cc(F)c(N2CCCC2)cc1N1CCNCC1 | inactive |
| FC(F)(F)c1cccc(N2CCN(Cc3ccoc3)CC2)c1 | inconclusive: 15.8 µM [inhibitor, single point] |
| CC1CCCN(S(=O)(=O)c2ccc(C(=O)Nc3nnc(-c4ccccc4Cl)o3)cc2)C1 (stereo not given) | inconclusive: 5.62 µM [activator, partial curve] |
| Cc1ccc(N2C(=O)C3C4C=CC(CNC(=S)N5CCN(c6ccccn6)CC5)(O4)C3C2=O)cc1 (stereo not given) | inactive |
| Cc1cc(C)n(CCc2nc(-c3ccco3)cs2)n1 | inconclusive: 17.7 µM [inhibitor, single point] |
| CC(C)OC(=O)Cc1nc2sc(-c3ccccc3)cc2c(=O)[nH]1 | inactive |
| Cc1ccc(O)c(NC(=S)NC(=O)/C=C/c2ccco2)c1 | inactive |
| Cc1nc(SCC(=O)Nc2nnc(C(C)C)s2)n[nH]1 | inconclusive: 14.1 µM [inhibitor, partial curve] |
| Cc1ccc(NC(=O)CN2CCCC2)cc1Br | inconclusive: 15.8 µM [inhibitor, partial curve] |
| CCOP(=O)(C#CC(C)(C)C)C(C)(O)c1ccccc1 (stereo not given) | inactive |
| Cc1[nH]c2ccccc2c1C(=O)CSC(=S)N(C)C | inactive |
| O=c1nccc(N/N=C/c2ccccc2)[nH]1 | inconclusive: 22.4 µM [inhibitor, single point] |
| COc1ccc([N+](=O)[O-])cc1NC1CCCCC1 | inactive |
| O=C1OC(/C(=C\Nc2cc(Cl)ccc2O)[N+](=O)[O-])c2ccccc21 (stereo not given) | inactive |
| COc1cccc(CNc2cccc3cccnc23)c1O | inconclusive: 2.81 µM [inhibitor, full curve] |
| O=C(C1CC(=O)N(C2CCCCC2)C1)N1CCC2(CC1)OCCO2 (stereo not given) | inactive |
| CCCN1CCN(CC(=O)Nc2nncs2)CC1 | active: 4.47 µM |
| Cc1ccc(NC(=O)CSc2ccccc2NC(=O)c2ccccc2Cl)cc1Cl | inactive |
| CCCCn1c(=O)[nH]c2nc3cc(N)ccc3nc2c1=O | active: 0.141 µM |
| Cc1cc(C)cc(N=Cc2[nH]c3ccc(Br)c(Cl)c3c2O)c1 | inconclusive: 8.89 µM [inhibitor, partial curve] |
| N#C/C(=C(/O)C(Cl)c1ccccc1)c1nc2ccccc2s1 (stereo not given) | inconclusive: 31.5 µM [activator, single point] |
| Cc1cc(C(=O)N/N=C/c2cccs2)n[nH]1 | inactive |
| COCCn1c(=S)[nH]c2ccc(N(C)C)cc2c1=O | inconclusive: 17.7 µM [inhibitor, partial curve] |
| CC(C)C(=O)N1CCN(c2ccc(NC(=O)c3ccc([N+](=O)[O-])o3)cc2Cl)CC1 | inconclusive: 15.8 µM [inhibitor, partial curve] |

| Compound | Potency |
| --- | --- |
| C=CCNC(=S)NNC(=O)C(CCCC)CC(C)(C)O (stereo not given) | inconclusive: 3.97 µM [inhibitor, full curve] |
| O=C1Cc2cc(S(=O)(=O)N3CCN(c4ccccc4)CC3)ccc2N1 | inactive |
| O=C(CSc1nc2ccccc2c(=O)n1-c1ccccc1)N1CCCC1 | inactive |
| Cc1c(NC(=O)c2ccc3c(c2)OCO3)cccc1-c1nc2ccccc2o1 | inactive |
| CC(=O)Cc1c(C(=O)O)c(C)nn1-c1ccccc1 | inconclusive: 17.7 µM [activator, partial curve] |
| CN(C)C(=O)/C(C#N)=C\c1cc(Br)c(Sc2ccc(Cl)cc2)o1 | inconclusive: 15.8 µM [inhibitor, partial curve] |
| CC(C)C1(C)N=C(c2ncccc2C(=O)O)NC1=O (stereo not given) | inconclusive: 4.46 µM [inhibitor, full curve, poor fit] |
| CC(C)c1c(Cl)c(O)c(-c2ccccc2)c(=O)n1-c1ccc(F)cc1 | inconclusive: 15.8 µM [activator, partial curve] |
| O=C(/C=C/c1ccco1)Nc1ccccc1C(=O)O | inconclusive: 15.8 µM [inhibitor, partial curve] |
| CCCCCCCC/C=C\CCCCCCCC(=O)OC[C@@H](COP(O)(O)=S)OC | inconclusive: 19.9 µM [inhibitor, single point] |
| COc1cc(-c2nnc3n2N=C(c2ccccc2)CS3)cc(OC)c1OC | inconclusive: 12.6 µM [inhibitor, partial curve] |
| COc1ccc(Nc2cc(C(=O)NCCCN3CCN(C)CC3)c3ccccc3n2)cc1OC | inconclusive: 1.26 µM [inhibitor, full curve, poor fit] |
| COC(=O)c1ccc(OC(=O)c2ccccn2)cc1 | inconclusive: 15.8 µM [inhibitor, partial curve] |
| CCNc1ncc2nc(-c3cccs3)c(=O)n(Cc3cccc(OC)c3)c2n1 | inactive |
| Cc1cccc(CNc2ccnc(-c3ccoc3)n2)c1 | inactive |
| CCN(CC)Cc1oc(CO)cc(=O)c1O | inconclusive: 15.8 µM [inhibitor, single point] |
| Oc1cc(-c2ccccc2)c2ccccc2c1 | active: 5.61 µM |
| Cc1noc(NS(=O)(=O)c2ccc(NC(=O)CSc3nc4c(cc3C#N)CCCCC4)cc2)c1C | inconclusive: 17.7 µM [activator, single point] |
| Cc1cc(=O)[nH]c(SCCOc2cccc(C(F)(F)F)c2)n1 | inconclusive: 15.8 µM [inhibitor, single point] |
| COCCn1nnnc1C(c1ccc(OC)c(OC)c1)N1CCN(C(=O)c2ccco2)CC1 (stereo not given) | inconclusive: 39.8 µM [inhibitor, single point] |
| CC(=O)/C(=N\Nc1ccc(C)cc1)Sc1nncn1C | active: 3.54 µM |
| c1ccc(CSc2nnc(-c3ccco3)c(-c3ccco3)n2)cc1 | inconclusive: 6.29 µM [inhibitor, partial curve] |
| C=CCNC(=O)[C@H]1N2C(=O)c3ccccc3C2SC1(C)C (stereo not given in full) | inactive |
| COC(=O)c1cc(N2CCN(C)CC2)nc2ccccc12 | inconclusive: 25.1 µM [inhibitor, single point] |
| O=C(Nc1ccccc1Oc1ccccc1)c1cccs1 | inactive |

— PubChem BioAssay AID2451 (National Center for Advancing Translational Sciences (NCATS), 2010)
